Inconclusive results and toxic doses are left out. Some entries of the source have several records that differ or are many. This list holds those alone. There may be further records. The records of an entry are repeats in other runs, samples, wells, individuals or studies.

For the assay, the system named is BDF1 mice, P388/VCR leukemia ip, median survival T/C. Kind of assay: NCI In Vivo Anticancer Drug Screen. Data for tumor model P388 Leukemia resistant to Vincristine; NSC 67574 (intraperitoneal) in B6D2F1 (BDF1) mice. As to conditions: endpoint: median survival time, schedule: Q01DX010 (ip), higher = longer survival. As to the method: The antitumor activity of compounds was measured in mice bearing transplantable tumors. Survival or tumor size were measured and the results are expressed as the measurement made in the treated group (T) divided by the measurement made in the vehicle treated control group (C). The tumor model used in this assay is P388 Leukemia resistant to Vincristine; NSC 67574 (intraperitoneal) in B6D2F1 (BDF1) mice

The mark [1] stands for this setting: dose: 10.0 mg/kg/injection, vehicle: saline.
Where [2] appears, read: dose: 20.0 mg/kg/injection, vehicle: saline.

For the compound `N#[N+]c1cnc([O-])[nH]c1=O`, the T/C under setting [1] was 95 % of control and 168 % of control.

For `O=C(Nc1ccc(C(=O)Nc2ccc(C3=NCCCN3)cc2)cc1)Nc1ccc(C2=NCCCN2)cc1`, the T/C (dose: 7.5 mg/kg/injection, vehicle: saline) was 116 % of control and 161 % of control.

With `O=C(Nc1ccc(NC2=NCCN2)cc1)c1ccc(C(=O)Nc2ccc(NC3=NCCN3)cc2)cc1`, the T/C (dose: 16.0 mg/kg/injection, vehicle: saline) is 111 % of control and 189 % of control.

With `Cc1cc(N(CCCl)CCCl)ccc1N=Nc1ccccc1C(=O)O`, the T/C is 117 % of control and 150 % of control under setting [1]; 117 % of control and 162 % of control under setting [2].

Regarding `Nc1nc(=S)c2[nH]cnc2[nH]1`, the T/C (dose: 2.5 mg/kg/injection, vehicle: other) was 107 % of control and 153 % of control.

On to `C[n+]1ccc(NC(=O)c2ccc(NC(=O)c3cccc(C(=O)Nc4ccc(C(=O)Nc5cc[n+](C)cc5)cc4)c3)cc2)cc1`, for which the T/C under setting [2] is 123 % of control and 150 % of control.

Regarding `N=[N+]=CC(=O)OCC(N)C(=O)O` (centres undefined), the T/C (dose: 12.5 mg/kg/injection, vehicle: saline) was 113 % of control and 150 % of control.

Regarding `C1CN1c1nc(N2CC2)nc(N2CC2)n1`, the T/C (dose: 0.25 mg/kg/injection, vehicle: saline) is 120 % of control and 152 % of control.

The record behind these values is PubChem BioAssay AID336 (DTP/NCI, 2004).
